Results on 115 sequences are retold here after the BET-seq Pho4 binding data (Le et al. 2018).

This is one part of the list. The energies were worked out here from pooled read counts, against the library average; single values are noisy.

In this assay the target is T1, Pho4 (S. cerevisiae) (UniProt P07270).
T1 sequence: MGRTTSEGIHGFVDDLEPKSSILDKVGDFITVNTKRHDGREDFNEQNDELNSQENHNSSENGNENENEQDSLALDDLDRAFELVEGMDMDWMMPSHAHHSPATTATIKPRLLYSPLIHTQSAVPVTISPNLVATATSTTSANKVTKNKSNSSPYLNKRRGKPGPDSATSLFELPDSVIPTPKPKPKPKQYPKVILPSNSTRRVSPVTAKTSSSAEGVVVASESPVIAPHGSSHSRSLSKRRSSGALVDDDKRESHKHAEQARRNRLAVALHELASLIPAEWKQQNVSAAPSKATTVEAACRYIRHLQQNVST
As to the kind of experiment: relative binding free energy (BET-seq); higher = weaker binding. As to conditions: reference: library average.
Take AAGGACACGTGGTATA: the “relative binding free energy” value was found to be 0.06 kcal/mol. As for AGTAGCACGTGGCGTG, the figure is -0.21 kcal/mol. As to GGGTTCACGTGGCTAA, the “relative binding free energy” value was 0.25 kcal/mol.

Regarding TGAGTCACGTGCGGGC, the “relative binding free energy” value was -0.09 kcal/mol. Turning to TATTACACGTGTTAGG, the “relative binding free energy” value is 0.14 kcal/mol.

In the case of ATCGGCACGTGGGTTG, the “relative binding free energy” value is -0.21 kcal/mol.

Turning to TGGCCCACGTGGGCGG, the “relative binding free energy” value was -0.31 kcal/mol. As to AATGACACGTGTATGG, the “relative binding free energy” value is -0.05 kcal/mol. As for AGGGACACGTGTTGAG, the figure is 0.1 kcal/mol. Consider TATGTCACGTGGGGGT, for which the “relative binding free energy” value was -0.08 kcal/mol. Take GCGGGCACGTGCTGTA: the “relative binding free energy” value is -0.04 kcal/mol.

In the case of TCGGACACGTGGTGTG, the “relative binding free energy” value is 0.12 kcal/mol. AGGCACACGTGATTGT: the “relative binding free energy” value was found to be 0.11 kcal/mol. Consider AGGAGCACGTGGTCTG, for which the “relative binding free energy” value was -0.1 kcal/mol. As for ATGGTCACGTGGGTAT, the “relative binding free energy” value amounted to 0.01 kcal/mol. Take TTTTACACGTGGGGTT: the “relative binding free energy” value was -0.04 kcal/mol.

As for TTCGTCACGTGCTTTG, the “relative binding free energy” value stood at 0.19 kcal/mol. As for GATTGCACGTGAGGTA, the “relative binding free energy” value worked out at 0.26 kcal/mol. With TTTTACACGTGAAGAA, the “relative binding free energy” value amounted to 0.36 kcal/mol. CAGTGCACGTGGAGGA: the “relative binding free energy” value was -0.02 kcal/mol. In the case of TTGATCACGTGGCTAT, the “relative binding free energy” value turned out to be 0.15 kcal/mol. On to ATAGGCACGTGTAACT, for which the “relative binding free energy” value stood at 0.07 kcal/mol.

On to TTTTGCACGTGTGTAC, for which the “relative binding free energy” value was found to be 0.07 kcal/mol. With AGTAGCACGTGGTTCA, the “relative binding free energy” value was -0.2 kcal/mol. For AGTAGCACGTGAATAT, the “relative binding free energy” value was 0.29 kcal/mol. For ACGCGCACGTGGCGGG, the “relative binding free energy” value is -0.19 kcal/mol. As to TGCAACACGTGTTAGT, the “relative binding free energy” value is -0.03 kcal/mol.

On to CCTGGCACGTGGCGGT, for which the “relative binding free energy” value was -0.21 kcal/mol. With ATTTTCACGTGGATAG, the “relative binding free energy” value amounted to 0.2 kcal/mol. Turning to GTAGCCACGTGAAGGT, the “relative binding free energy” value was 0.26 kcal/mol.

For the sequence TGCTACACGTGGGTCG, the “relative binding free energy” value is -0.13 kcal/mol.

For the sequence TTGTTCACGTGTCGGG, the “relative binding free energy” value was determined as 0.39 kcal/mol. Turning to TTGTGCACGTGTGTTG, the “relative binding free energy” value worked out at 0.11 kcal/mol. Regarding AGGTCCACGTGGAGTG, the “relative binding free energy” value was -0.06 kcal/mol. ATGGGCACGTGTCATT: the “relative binding free energy” value is -0.06 kcal/mol. For ATGGACACGTGGGTCG, the “relative binding free energy” value is -0.15 kcal/mol. As to TTAAACACGTGTTAAT, the “relative binding free energy” value stood at 0.09 kcal/mol. For GTATACACGTGGAGTA, the “relative binding free energy” value is -0.04 kcal/mol.

As to TAAATCACGTGGGCTG, the “relative binding free energy” value is -0.01 kcal/mol. ATAAACACGTGGGGAG: the “relative binding free energy” value is -0.09 kcal/mol. On to TTGATCACGTGACGGG, for which the “relative binding free energy” value turned out to be 0.26 kcal/mol. As to GGAGGCACGTGAGAGT, the “relative binding free energy” value was found to be 0.2 kcal/mol. Take GGGCGCACGTGGAAGT: the “relative binding free energy” value was -0.04 kcal/mol. As for TTGCACACGTGCGGTT, the figure is 0.19 kcal/mol. With GCAAGCACGTGGGCGG, the “relative binding free energy” value was -0.3 kcal/mol. With AAGTACACGTGAATTT, the “relative binding free energy” value is 0.31 kcal/mol. As for TGTTACACGTGTAGGG, the “relative binding free energy” value was determined as 0.13 kcal/mol. Take CGTGTCACGTGTCTGG: the “relative binding free energy” value is -0.02 kcal/mol. Regarding AGATGCACGTGTGCGA, the “relative binding free energy” value is 0.06 kcal/mol. Then GAGTTCACGTGTGGAT, with 0.45 kcal/mol; and CGTGCCACGTGTTATG, with -0.09 kcal/mol. As to TGGATCACGTGATATT, the “relative binding free energy” value came out at 0.2 kcal/mol. For the sequence TATAGCACGTGAGGTA, the “relative binding free energy” value is 0.09 kcal/mol. As for TTCAGCACGTGAGTGA, the figure is 0.19 kcal/mol.

With GTTATCACGTGGTTTG, the “relative binding free energy” value worked out at 0.07 kcal/mol. Take TGAGGCACGTGAAGTT: the “relative binding free energy” value worked out at 0.23 kcal/mol.

On to GATAGCACGTGGTGGA, for which the “relative binding free energy” value was -0.09 kcal/mol. Then TTTTTCACGTGTACCG, with 0.33 kcal/mol.

With TAAGGCACGTGTCCGG, the “relative binding free energy” value was -0.11 kcal/mol. Turning to GGGGTCACGTGTTCAT, the “relative binding free energy” value was determined as 0.18 kcal/mol. On to TGAAACACGTGGGTCA, for which the “relative binding free energy” value is -0.04 kcal/mol. As for AGCTACACGTGGGGTT, the figure is -0.04 kcal/mol; as for TTGTGCACGTGCGTAG, -0.04 kcal/mol.

With GAATTCACGTGGGATA, the “relative binding free energy” value is 0.39 kcal/mol. AAGGACACGTGAAGGT: the “relative binding free energy” value is 0.18 kcal/mol. Regarding TAGCGCACGTGTATGG, the “relative binding free energy” value was -0.07 kcal/mol. Consider CTTGTCACGTGGGGTA, for which the “relative binding free energy” value is -0.08 kcal/mol. Then TGAAGCACGTGAGTTA, with 0.13 kcal/mol; and GGTGGCACGTGTGAAG, with 0.1 kcal/mol.

On to CTTGTCACGTGCGCGG, for which the “relative binding free energy” value was -0.1 kcal/mol.

Turning to GTTATCACGTGTTTCA, the “relative binding free energy” value was determined as 0.14 kcal/mol. For ACGATCACGTGTGGAT, the “relative binding free energy” value was 0.27 kcal/mol. Then TTGCGCACGTGTGGTA, with -0.14 kcal/mol; and TGTGGCACGTGATTTA, with -0.01 kcal/mol; and TCTTGCACGTGGTAGG, with -0.04 kcal/mol.

In the case of ATTTTCACGTGTCGTA, the “relative binding free energy” value was 0.42 kcal/mol.

Turning to CGTGGCACGTGGATGT, the “relative binding free energy” value came to 0.04 kcal/mol. With CTATACACGTGGTTGG, the “relative binding free energy” value was -0.02 kcal/mol. On to TCATTCACGTGAATGG, for which the “relative binding free energy” value worked out at 0.35 kcal/mol. As to TGGTACACGTGCTCTT, the “relative binding free energy” value was determined as 0.08 kcal/mol. For the sequence TGTGTCACGTGTGACA, the “relative binding free energy” value was 0.12 kcal/mol. In the case of TTAAGCACGTGTGTCT, the “relative binding free energy” value was -0.04 kcal/mol.

Consider GGTGGCACGTGCGGCT, for which the “relative binding free energy” value was -0.12 kcal/mol. As for CGTTTCACGTGGGTAA, the figure is 0.18 kcal/mol. As for AGGGGCACGTGTGGCC, the figure is -0.02 kcal/mol; as for TAGGTCACGTGTCGAT, 0.15 kcal/mol; as for AAGTTCACGTGTATAA, 0.34 kcal/mol.

On to TTTAACACGTGTGATG, for which the “relative binding free energy” value was 0.07 kcal/mol. TAAATCACGTGATTTG: the “relative binding free energy” value amounted to 0.1 kcal/mol. Turning to TTGCGCACGTGGAGAT, the “relative binding free energy” value is -0.04 kcal/mol. With GGGGTCACGTGGCGGA, the “relative binding free energy” value was found to be 0.09 kcal/mol. As to GAGTTCACGTGGAATA, the “relative binding free energy” value stood at 0.32 kcal/mol. With AATTTCACGTGAGTGA, the “relative binding free energy” value stood at 0.33 kcal/mol.

Take TTTCACACGTGTGGGG: the “relative binding free energy” value is 0.11 kcal/mol. As to ATGATCACGTGGCGTT, the “relative binding free energy” value turned out to be 0.1 kcal/mol.

On to GGTAGCACGTGCGTGA, for which the “relative binding free energy” value is -0.1 kcal/mol.

On to TGGTTCACGTGTCCAG, for which the “relative binding free energy” value is 0.31 kcal/mol.

Consider CTCTTCACGTGTTATG, for which the “relative binding free energy” value came to 0.33 kcal/mol.

GGTCCCACGTGGGGTT: the “relative binding free energy” value was -0.34 kcal/mol. Regarding TTAGCCACGTGATAGG, the “relative binding free energy” value was found to be 0.22 kcal/mol. For the sequence ATATACACGTGGAAGG, the “relative binding free energy” value was -0.01 kcal/mol. Take TATGACACGTGATAGT: the “relative binding free energy” value turned out to be 0.2 kcal/mol. With TGGTTCACGTGTGCGT, the “relative binding free energy” value amounted to 0.13 kcal/mol. As to TTGAACACGTGGACGG, the “relative binding free energy” value stood at 0.23 kcal/mol. For the sequence CGTGACACGTGAATGT, the “relative binding free energy” value stood at 0.39 kcal/mol.

Consider CGTATCACGTGTTATT, for which the “relative binding free energy” value was -0.01 kcal/mol. As to GCATACACGTGGTGTT, the “relative binding free energy” value was -0.03 kcal/mol.

On to GTGGCCACGTGGCGGC, for which the “relative binding free energy” value was -0.04 kcal/mol. Consider GGTTACACGTGCGGGG, for which the “relative binding free energy” value was found to be 0.1 kcal/mol.

As for GGGTACACGTGTATGT, the “relative binding free energy” value worked out at 0.08 kcal/mol. Then GGTCTCACGTGAGTTT, with 0.32 kcal/mol.

Turning to CTTGACACGTGGGTGC, the “relative binding free energy” value was -0.22 kcal/mol. As to GGTGCCACGTGGGTGC, the “relative binding free energy” value was -0.33 kcal/mol.

As for TGAGGCACGTGTACGT, the “relative binding free energy” value is -0.12 kcal/mol. GTAGTCACGTGTTGGG: the “relative binding free energy” value is 0.11 kcal/mol.
